Source: PubChem BioAssay (NCATS)
The shares of active, inactive and inconclusive entries below differ from those in the screen. No potency is given beside an inconclusive call; the fits are too rough. More than one record can exist for a structure, and the calls need not agree. Active and inactive are the calls of the source. The call rests on the fitted dose curve; in most records, active means well fitted inhibition curve with a large enough effect; inconclusive means small, poorly fitted or top-dose-only effect; inactive means flat fitted curve, though single readings scatter.
On the % scale 0 is the no-effect control and ±100 the full control effect; potency means the concentration at half of the fitted maximal effect; tags describe the fitted curve by direction and shape.

Each molecule was assayed against Ubiquitin carboxyl-terminal hydrolase 1 (Homo sapiens) (UniProt O94782) (assay: Inhibitors of USP1/UAF1: Pilot qHTS (AID 504865;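 further: rhodamine fluorescence freed from ubiquitin-rhodamine substrate followed over time; nearly all actives have a fitted effect of over 35% in size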; on activity change, negative = inhibition: top concentration of the series differs between compounds)). Conditions: purified USP1/UAF1, Ub-rhodamine cleavage fluorescence; series mostly up to 114 µM; activity change, negative = inhibition: at the top concentration.
Chain of UniProt O94782 (O94782 whole entry, looked up): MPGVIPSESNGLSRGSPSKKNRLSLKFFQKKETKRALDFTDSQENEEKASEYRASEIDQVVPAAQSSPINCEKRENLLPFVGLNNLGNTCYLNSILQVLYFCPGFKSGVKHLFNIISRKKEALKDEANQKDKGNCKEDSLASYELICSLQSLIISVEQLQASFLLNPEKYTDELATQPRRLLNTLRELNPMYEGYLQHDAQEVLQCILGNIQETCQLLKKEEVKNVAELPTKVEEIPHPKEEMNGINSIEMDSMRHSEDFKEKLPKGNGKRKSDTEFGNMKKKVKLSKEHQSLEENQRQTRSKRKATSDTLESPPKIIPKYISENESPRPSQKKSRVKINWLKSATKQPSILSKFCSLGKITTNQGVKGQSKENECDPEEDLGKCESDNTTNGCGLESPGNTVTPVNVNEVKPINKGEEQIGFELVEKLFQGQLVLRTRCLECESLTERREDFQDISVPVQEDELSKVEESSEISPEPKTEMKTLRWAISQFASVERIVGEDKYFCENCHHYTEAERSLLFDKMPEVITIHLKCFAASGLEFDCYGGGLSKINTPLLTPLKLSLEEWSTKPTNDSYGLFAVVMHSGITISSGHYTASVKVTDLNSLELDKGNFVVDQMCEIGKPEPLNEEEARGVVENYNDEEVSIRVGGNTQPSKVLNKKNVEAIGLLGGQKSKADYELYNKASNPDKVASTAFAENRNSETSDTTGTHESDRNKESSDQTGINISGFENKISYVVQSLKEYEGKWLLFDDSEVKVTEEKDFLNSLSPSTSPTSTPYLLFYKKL
Summary of the method: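 Deubiquitinase activity followed as kinetic rhodamine fluorescence release from 150 nM Ub-Rho. 1 nM USP1/UAF1 with compound, after 15 min room-temperature preincubation, in HEPES pH 7.8 buffer containing TCEP, EDTA, BSA and Tween-20.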
`COc1ccc(C(=O)c2c(C)n(CCN3CCOCC3)c3ccccc23)cc1` was tested, and the Potency was inconclusive [inhibitor, partial curve, poor fit].
For `NP(N)(=O)NC(=O)c1ccc(F)cc1`, the “activity change, negative = inhibition” value was inactive: -3.45%.
For `CN1CC[C@@]2(C)c3cc(OC(=O)Nc4ccccc4)ccc3N(C)[C@@H]12`, the Potency was inconclusive [inhibitor, partial curve, poor fit].
With `O=C1OC(c2ccc(O)c(S(=O)(=O)O)c2)(c2ccc(O)c(S(=O)(=O)O)c2)c2c(Br)c(Br)c(Br)c(Br)c21` the Potency was active: 50.1 µM.
For `O=[N+]([O-])c1ccc([As](=O)(O)O)cc1`, the “activity change, negative = inhibition” value was inactive: 3.65%.
`CCC1(CC)C(=O)C=CNC1=O` was tested, and the Potency was “inactive”.
With `C[C@](O)(CS(=O)(=O)c1ccc(F)cc1)C(=O)Nc1ccc(C#N)c(C(F)(F)F)c1` the Potency was inconclusive [inhibitor, partial curve, poor fit].
With `CCC(COC(=O)c1cc(OC)c(OC)c(OC)c1)(c1ccccc1)N(C)C` (centres undefined) the Potency was inconclusive [inhibitor, partial curve, poor fit].
`C=CCN1CCC2(C)c3cc(O)ccc3C[C@H]1[C@H]2C` was tested, and the “activity change, negative = inhibition” value was inactive: -8.95%.
`CCCC(C)C1(CC)C(=O)N=C(S)NC1=O` (centres undefined) was tested, and the “activity change, negative = inhibition” value was inactive: -11.6%.
`CCN(CC)CCOC(=O)C(C)(c1ccccc1)c1ccccc1` was tested, and the “activity change, negative = inhibition” value was inactive: -9.74%.
In the case of `Cc1ccc(-c2nc3ccc(C)cn3c2CC(=O)N(C)C)cc1`, the “activity change, negative = inhibition” value is reported as inactive: -5.45%.
With `CC1CCCC(=O)CCC/C=C/c2cc(O)cc(O)c2C(=O)O1` (centres undefined) the “activity change, negative = inhibition” value was inactive: -9.25%.
With `CC(C)=CCOc1c2occc2cc2ccc(=O)oc12` the Potency was inconclusive [inhibitor, partial curve, poor fit].
For `C[C@]12CC[C@@H]3c4ccc(OC(=O)N(CCCl)CCCl)cc4CC[C@H]3[C@@H]1CC[C@@H]2O`, the Potency was active: 50.1 µM.
With `CCN(CC)CCOC(=O)C(O)(c1ccccc1)c1ccccc1` the “activity change, negative = inhibition” value was inactive: 1.73%.
In the case of `Clc1ccc(CSC(Cn2ccnc2)c2ccc(Cl)cc2Cl)cc1` (centres undefined), the Potency is reported as inconclusive [inhibitor, partial curve].
`CCC(C(N)=O)N1CCCC1=O` (centres undefined) was tested, and the “activity change, negative = inhibition” value was inactive: 2.99%.
In the case of `CCCCCCCCCC[N+](C)(C)CCCCCCCCCC`, the Potency is reported as active: 31.6 µM.
For `CC(NC(C)(C)C)C(=O)c1cccc(Cl)c1` (centres undefined), the “activity change, negative = inhibition” value was inactive: -9.92%.
`CC[C@]1(O)CC[C@H]2[C@@H]3CCC4=CCCC[C@@H]4[C@H]3CC[C@@]21C` was tested, and the Potency was inconclusive [inhibitor, full curve, poor fit].
`CN1C(=S)CN=C(c2ccccc2)c2cc(Cl)ccc21` was tested, and the Potency was inconclusive [inhibitor, partial curve, poor fit].
With `FC(F)(F)c1cccc(C2=CCN(CCc3ccc4ccccc4c3)CC2)c1` the Potency was inconclusive [inhibitor, full curve].
For `CC1NCCOC1c1ccccc1` (centres undefined), the “activity change, negative = inhibition” value was inactive: 1.57%.
With `O=C1NCN(c2ccccc2)C12CCN(CCCOc1ccc(F)cc1)CC2` the Potency was inconclusive [inhibitor, partial curve, poor fit].
In the case of `Oc1cccc[c]1[Hg][Cl]`, the Potency is reported as active: 44.7 µM.
In the case of `CS(=O)c1ccc(-c2nc(-c3ccc(F)cc3)c(-c3ccncc3)[nH]2)cc1` (centres undefined), the Potency is reported as inconclusive [inhibitor, partial curve].
In the case of `S=C(NC1CCCCC1)N1CCC(c2cnc[nH]2)CC1`, the “activity change, negative = inhibition” value is reported as inactive: -1.58%.
`NCCc1cc(O)c(O)cc1O` was tested, and the Potency was active: 50.1 µM.
With `Clc1ccc(CO/N=C(\Cn2ccnc2)c2ccc(Cl)cc2Cl)c(Cl)c1` the Potency was inconclusive [inhibitor, partial curve, poor fit].
In the case of `C[C@]12CCC(=O)C(O)=C1CC[C@@H]1[C@H]3CCC(=O)[C@@]3(C)CC[C@@H]12`, the “activity change, negative = inhibition” value is reported as inactive: -9.96%.
In the case of `O=C1C(I)=CC(=C(c2cc(I)c(O)c(I)c2)c2ccccc2C(=O)O)C=C1I`, the Potency is reported as active: 25.1 µM.
For `CN1CCN(C(=O)O[C@H]2c3nccnc3C(=O)N2c2ccc(Cl)cn2)CC1`, the Potency was inconclusive [inhibitor, partial curve, poor fit].
In the case of `Oc1ccc2[nH]cc(CCCCN3CC=C(c4ccccc4)CC3)c2c1`, the Potency is reported as inconclusive [inhibitor, partial curve].
In the case of `c1csc(C2(N3CCCCC3)CCCCC2)c1`, the “activity change, negative = inhibition” value is reported as inactive: -10.3%.
`COc1ccc(Cc2nccc3cc(OC)c(OC)cc23)cc1OC` was tested, and the Potency was active: 50.1 µM.
In the case of `COc1ccc(C(=O)c2c(C)n(CCN3CCOCC3)c3cc(I)ccc23)cc1`, the Potency is reported as inconclusive [inhibitor, partial curve].
For `CC(C)=CC1C(C(=O)OCN2C(=O)C3=C(CCCC3)C2=O)C1(C)C` (centres undefined), the Potency was inconclusive [inhibitor, partial curve, poor fit].
With `COc1c2c(cc3c1OCO3)CCN(C)C2` the “activity change, negative = inhibition” value was inactive: 14.4% [at 54.9 µM].
